The full ranking holds about 16,000 sequences; the median of “Z-score” is about -0.37, and the highest 2% start at about 3.1. The list shows a part of the results.
tested on: RBM10 RRM1-ZnF-RRM2 (GST-tagged construct); experiment: RNAcompete 7-mer binding Z-score; higher = stronger binding preference
How it was run: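 In 1 ml Hepes pH 7.8 buffer with KCl, NaCl, glycerol, DTT, BSA and glutathione Sepharose beads, GST-tagged RBM10 constructs (20 pmol) were incubated for 30 min at 4°C with 1.5 nmol of a designed pool of 241 399 RNAs up to 41 nt. Four 2-min washes at 4°C followed, and bound RNA was detected by microarray hybridisation. Heptamer motif enrichment was expressed as a one-sided Z-score across probes containing each motif.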

Row | Sequence | RNAcompete 7-mer binding Z-score
1 | CUGUGAC | -0.599
2 | GCAUAGG | 1.89
3 | UUGGUUA | 0.352
4 | UCCUGUU | -0.73
5 | AAGCCAC | -0.5
6 | CCUAGUG | -0.355
7 | CCUUGUC | -0.89
8 | GAGAUUC | -0.246
9 | UGCUCGC | -0.613
10 | AGUGGGC | 2.96
11 | GCCGCAU | -0.639
12 | AUCAUCA | -0.519
13 | CCGAAUU | -0.766
14 | UGGGAAG | 3.99
15 | GACUUGC | -0.887
16 | AGCAGUU | -0.198
17 | AUGAUUU | -0.668
18 | GGUCAUU | 0.232
19 | GGAUCUA | -0.271
20 | AUCUACC | -0.843
21 | AGUCGCC | -0.402
22 | UCACAAC | -0.592
23 | GCGGAGU | 1.32

Row | Sequence | RNAcompete 7-mer binding Z-score
24 | ACCAGUA | -0.391
25 | CUAUACA | -0.555
26 | GUAUGAC | 0.0896
27 | AGGAUUA | 0.712
28 | UGCUAGC | -0.57
29 | AAGGGAA | 4.17
30 | AAGGGGC | 3.1
31 | CAGAAAA | -0.0306
32 | GACCCCU | -0.872
33 | GCUUCAA | -0.573
34 | GGAGGCU | 1.29
35 | GACAUGC | -0.322
36 | CCCGCUG | -0.675
37 | CCUCUGG | -0.53
38 | UCAGGUU | 0.235
39 | AUGGGUU | 2.86
40 | ACAGGGC | 2.36
41 | GGGCAAA | 2.09
42 | GAUCCAC | -0.639
43 | AGCUCCA | -0.726
44 | GCGAGAA | 0.643
45 | CGUCCUC | -0.861
46 | CCCAACA | -0.675

Row | Sequence | RNAcompete 7-mer binding Z-score
47 | AGGCAUG | 0.793
48 | UAAAAUC | -0.694
49 | UACAGGC | 0.403
50 | UUACGAA | -0.337
51 | GUGGGUC | 2.4
52 | GGUGAUG | 2.52
53 | UUUCUUG | -0.723
54 | UCCUAGC | -0.792
55 | CAAGAUA | -0.333
56 | GACAGCA | 0.272
57 | CGUGGAC | 1.17
58 | AACUAGC | -0.373
59 | AUUUUUG | -0.602
60 | GAGGAAA | 2.2
61 | GAACUUG | -0.366
62 | UUCUCAC | -0.726
63 | CCCGCUU | -0.876
64 | CGAUUGA | -0.286
65 | CUGGACU | -0.515
66 | AUUUAUU | -0.69
67 | AAACCUA | -0.613
68 | ACAGAUU | -0.242
69 | AUUGAAG | 0.326

Row | Sequence | RNAcompete 7-mer binding Z-score
70 | UCGCAAA | -0.646
71 | CUCCCUU | -0.879
72 | AGACGUA | -0.162
73 | AUUUUUC | -0.817
74 | GAUGAAU | 0.585
75 | UCCAGGA | 0.472
76 | AAUACUA | -0.544
77 | UUAGUAC | -0.479
78 | AGAAAGC | -0.122
79 | GGCGUUU | 0.0386
80 | CGGAUAG | 1.59
81 | CCACCUG | -0.726
82 | UACUUCA | -0.719
83 | AUACCUU | -0.897
84 | UGCCUUC | -0.814
85 | CGAUUUC | -0.788
86 | CAGGUCC | -0.165
87 | UCCAGUG | -0.224
88 | GGGGCCC | 0.315
89 | GGCAUAC | 0.162
90 | UAAUCCU | -0.901
91 | UGCCGCA | -0.562
92 | ACGAAUG | 0.144

Row | Sequence | RNAcompete 7-mer binding Z-score
93 | CUGAGGC | -0.0743
94 | CUCCCGU | -0.613
95 | GAUCUUC | -0.755
96 | GGGUAGA | 3.84
97 | AAUAAGA | 0.0568
98 | GCCAGCG | -0.0343
99 | UCAAUGA | 0.0349
100 | GUAUGAA | 0.355
101 | GAUCCGC | -0.821
102 | AAGGAUG | 3.89
103 | GCCACUG | -0.555
104 | UGUCAAC | -0.544
105 | ACUCGAA | -0.504
106 | GCACGCG | -0.0598
107 | CCGCUGC | -0.482
108 | GCCGUUG | -0.304
109 | CGCCAUG | -0.628
110 | UCCCUAU | -0.752
111 | CUAAGUC | -0.573
112 | AGAUGAC | 0.0532
113 | CGUGAAC | -0.42
114 | GCGAUAG | 0.811
115 | CCUCUUU | -0.945

Row | Sequence | RNAcompete 7-mer binding Z-score
116 | AACAACC | -0.69
117 | GUCCCUG | -0.559
118 | AUCUCUG | -0.846
119 | CAGUAUG | 0.17
120 | AACGUCU | -0.599
121 | GGAGUUG | 2.56
122 | UCGUUCA | -0.508
123 | UGUAACU | -0.358
124 | GUAGUGC | 0.661
125 | CGGGCAA | 1.02
126 | CCUGGUA | -0.566
127 | AGUUACC | -0.304
128 | GCCGCUU | -0.923
129 | GCACAUU | -0.409
130 | UUCAUAU | -0.599
131 | AGCCUAC | -0.919
132 | CGCGCUC | -0.621
133 | GAGAGUU | 0.396
134 | GGCGACU | 0.425
135 | CAGAUCC | -0.643
136 | GUAUAAA | 0.0969
137 | AGGGCAG | 2.3
138 | UGAUAAA | -0.213

Row | Sequence | RNAcompete 7-mer binding Z-score
139 | UCUCGCG | -0.679
140 | CGGAGUA | 1.22
141 | ACCCACG | -0.551
142 | GGACUCA | -0.00512
143 | CUCACUC | -0.785
144 | GCGCGCC | -0.351
145 | GCGAGCG | 2.99
146 | CCAAGUA | -0.205
147 | UUUGCUG | -0.679
148 | GCCCUCC | -0.697
149 | UAGUCGA | -0.278
150 | GGCCCGG | -0.0197
151 | AACGUGG | 1.49
152 | GCUAGUU | -0.537
153 | AAUAGCA | -0.0925
154 | GAACGUU | -0.388
155 | UAAUACU | -0.65
156 | UAAAACA | -0.242
157 | UGUCCGU | -0.602
158 | UAGGUUC | 0.217
159 | UUUGGUA | 0.137
160 | ACUACCC | -0.934
161 | AGGCACC | -0.384

Row | Sequence | RNAcompete 7-mer binding Z-score
162 | UACACAG | -0.231
163 | CCGAGCA | -0.49
164 | UAAGCAG | 0.461
165 | UUAACAG | -0.22
166 | AAGGCGU | 1.67
167 | UUGUCAG | -0.391
168 | AACAGUU | -0.377
169 | ACUUACU | -0.701
170 | UUCAGGU | 0.312
171 | CAAUUCU | -0.788
172 | AAAUCUC | -0.876
173 | CUCAACU | -0.872
174 | GACAUUG | 0.224
175 | ACGUUGC | -0.522
176 | UUAGCUG | -0.541
177 | CCCUUAC | -0.956
178 | AAGAUCU | -0.635
179 | CAUGUUC | -0.646
180 | ACCCAGG | -0.173
181 | GGUUAGC | 1.03
182 | AGGGUAG | 3.71
183 | CUUAGCA | -0.668
184 | ACACAGA | 0.108

Source: the supplement of paper PMC5499739
